Measured values as given in publication PMC12136788.
This is one part of the list.

B1: ENSG00000198589:be:win_1151|CDS|ENSG00000198589|bound_else_gene|NA|bound_elsewhere_windowed (ssRNA)
RNA: GGGAGUUCUACAGUCCGACGAUCUGGGAUACAAGGGUACAUUUAAAUUCAAAGCAGAAAGCGACCUUUUCCUUGCUGAGCAUCACAAACUUUUAUUGUACGAUGGGAAACUCUCUAGUGCCAUUGCAUUCACGUACAAUCCACCAACAGAGGAUUGAGCAUCA
B2: chr14:22589090:22589186:-|5pUTR_CDS|ENSG00000129562|msi1_unk|total|mutant (ssRNA)
RNA: GGGAGUUCUACAGUCCGACGAUCUCCUCCAAGAGUUUGGGGCGCGGACCGGAGUACCUUGCGUGCAGUUAUGUCGGCGUCGGCCGUGUCUGUCAUUUCGCGGUUCUCCGAAGAGUACUUGAGCUCCACUCCGCAGCGUCUGAACAACAGAGGAUUGAGCAUCA
B3: chr9:91409354:91409467:-|CDS|ENSG00000165030|unk|total|mutant (ssRNA)
RNA: GGGAGUUCUACAGUCCGACGAUCAAUGAAAGACAGUGGCUACAAAGUUUCUGACCCAGAGAACUUGUAUUUGAAGCAGGGGACCGCAAACUUAUCUGCAGAGGUUGUCUCACUCAAGAGACUUACCGCCACACAACCAAUCUCCAACAGAGGAUUGAGCAUCA
B4: chr2:1633339:1633490:-|3pUTR|ENSG00000130508|msi1|FALSE|unique (ssRNA)
RNA: GGGAGUUCUACAGUCCGACGAUCUUCAUAAGCCACAUUUAGAAACAGGUUUGCUUUCAGCUGUCACUUGCACACAUACUGCCUAGUUGUGAACCAAAUGUGAAAAAACCUCCUUCAUCCCAUUGUGUAUCUGAUACCUGCCGACAACAGAGGAUUGAGCAUCA
B5: chr10:103999120:103999255:+|CDS|ENSG00000065613|unk|total|mutant (ssRNA)
RNA: GGGAGUUCUACAGUCCGACGAUCAUCUAAGGACAGACCCUAUGACUACAAAGCUGAUGUUUGGUCCCUGGGUAUCACUUUAACCGAAAUGGCUGAGACCGAACCACCUCAUCAUGAAUUAAAUCCAAUGCGAGUGCUGCUAAACAACAGAGGAUUGAGCAUCA
B6: chr7:115017934:115018035:+|3pUTR|ENSG00000135272|unk|total|mutant (ssRNA)
RNA: GGGAGUUCUACAGUCCGACGAUCUGAGAUGAAACGCCGUUUCCCGUUAUAUCAUUACUUAAAGGGCUUAAAAAGAAAAAACUCCGCAAACUUUUGAAUCUUUCUUUUAUUGCUAUUUACACAUACAUACACACAUACAAAACCCAACAGAGGAUUGAGCAUCA

biological target: MSI1 full-length (mouse, UniProt Q61474 1-362); test: nsRBNS (natural sequence RNA bind-n-seq); RBNS binding buffer (assumed for nsRBNS): 25 mM Tris pH 7.5, 150 mM KCl, 3 mM MgCl2, 0.01% Triton X-100, 500 ug/ml BSA, 20 U/ml SUPERase-In, 4 C; UNK is unkempt and MSI1 is Musashi-1; names of the RNAs are library labels; protein concentration not given here; high values mean tight binding
UniProt Q61474, sequence (Q61474 whole entry): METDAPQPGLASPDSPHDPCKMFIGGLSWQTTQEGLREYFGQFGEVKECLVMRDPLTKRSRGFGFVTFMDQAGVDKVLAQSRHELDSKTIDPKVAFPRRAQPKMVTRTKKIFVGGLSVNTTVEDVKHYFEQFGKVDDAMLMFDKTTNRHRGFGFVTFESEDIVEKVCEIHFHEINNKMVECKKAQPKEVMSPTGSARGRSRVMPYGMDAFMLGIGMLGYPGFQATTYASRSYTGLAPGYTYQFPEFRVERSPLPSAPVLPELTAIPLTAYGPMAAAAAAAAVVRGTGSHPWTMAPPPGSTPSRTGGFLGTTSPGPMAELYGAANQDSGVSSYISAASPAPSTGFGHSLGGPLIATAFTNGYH

First: B1
Second: B2
The binding signal of the first is lower: 0.307 enrichment R for the first, 0.324 enrichment R for the second.

First: B3
Second: B4
The binding signal of the first is higher: 0.409 enrichment R for the first, 0.34 enrichment R for the second.

Going from B5 to B6, the binding signal rises from 0.32 enrichment R to 11.7 enrichment R.
